Assay results reported in ChEMBL document CHEMBL4888484, “Replenishing the malaria drug discovery pipeline: Screening and hit evaluation of the MMV Hit Generation Library 1 (HGL1) against asexual blood stage Plasmodium falciparum ,using a nano luciferase reporter read-out” (2022).
Out of some 150,000 compounds screened, about 540 (0.36%) showed an effect of 50% or more. This is one part of the list.

The molecules below were run on Plasmodium falciparum (assay: Primary screen in NF54 nanoGlo assay, in single point, at 2uM, 72h; a lower Z score goes with more inhibition). Settings: timepoint 72 hour.
Format: functional, Erythrocyte
In the case of `COc1ccc([C@@H](O)Cn2cnc(C(=O)N3CCN(c4ccc(Cl)cc4)CC3)n2)cc1`, the “% Inhibition” value is reported as -11% and the Z score is reported as 1.28. In the case of `Cn1nc(-c2cc(F)cc(F)c2)cc1NC(=O)NC[C@H]1COCO1`, the “% Inhibition” value is reported as -6% and the Z score is reported as 0.81. For `Cc1ccc(F)cc1CNC[C@H]1CC[C@@H](CO)O1`, the “% Inhibition” value was 19% and the Z score was -2.36. With `CCCc1nc(C)sc1C(=O)Nc1nc(C(=O)OC)c(CC(C)C)s1` the “% Inhibition” value was -15% and the Z score was 1.9. With `COc1ccc(-c2cnn3c(C)cc(C)nc23)cc1S(=O)(=O)NCc1ccc(F)cc1F` the “% Inhibition” value was -16% and the Z score was 1.57. In the case of `CN(Cc1csc(-c2ccccc2)n1)C(=O)CN1CCOC1=O`, the “% Inhibition” value is reported as 2% and the Z score is reported as -0.43. With `CCOc1ccc2nc(N3CCOC3=O)sc2c1` the “% Inhibition” value was -38% and the Z score was 4.51. For `COc1cc(CNc2ccc(Br)cc2CO)sn1`, the “% Inhibition” value was -9% and the Z score was 1.54. With `Cc1cc(C(=O)NCc2ccco2)c2c(=O)n(C)c(=O)n(C)c2n1` the “% Inhibition” value was -16% and the Z score was 2.13. With `Cc1ccc(C)c(CN2CC[C@]3(O)CCN(C(=O)C4CCC4)C[C@@H]3C2)c1` the “% Inhibition” value was -10% and the Z score was 1.43. With `O=C(CCS(=O)(=O)c1ccccc1)N1CCO[C@H](c2ccc(C(F)(F)F)cc2)C1` the “% Inhibition” value was -13% and the Z score was 2.07. For `Cn1cc(NC(=O)NCC(C)(C)C2CCOCC2)nn1`, the “% Inhibition” value was -13% and the Z score was 2.48. For `Cc1ccc(F)c(C(=O)OCC2(C#N)CCOCC2)c1`, the “% Inhibition” value was -5% and the Z score was 0.78. With `CC(=O)c1ccccc1C(=O)NCc1ccnc(OC2CCC2)c1` the “% Inhibition” value was -14% and the Z score was 2.68. With `COc1ccc(C)cc1NC(=O)Cn1c(=O)n(C(C)C)c2ccc(S(=O)(=O)N3CCCC3)cc21` the “% Inhibition” value was -2% and the Z score was 0.19. With `COCCc1nc(C[C@@H]2NC(=O)c3ccccc32)n(CC(C)(C)O)n1` the “% Inhibition” value was -2% and the Z score was 0.44. For `Cc1nnccc1NC(=O)N(C)CC1(O)CCCCCC1`, the “% Inhibition” value was -15% and the Z score was 2.8. For `Cc1ccc(CS(=O)(=O)N2CCN(c3nc[nH]n3)CC2)cc1F`, the “% Inhibition” value was 1% and the Z score was -0.09. For `COc1cc(C(=O)NC(C)(C)c2cnn(C)c2)n[nH]1`, the “% Inhibition” value was 3% and the Z score was -0.37. With `Cc1cc(C(=O)Nc2ccc(N(C)C(=O)c3cc(C)sc3C)c(Cl)c2)c(C)s1` the “% Inhibition” value was -1% and the Z score was 0.22. In the case of `CC(C)(C)c1nc(C(=O)Nc2c[nH]nn2)cs1`, the “% Inhibition” value is reported as 2% and the Z score is reported as -0.19. With `CC(C)c1ccc(C#N)c(N2CCC(N(C)C)CC2)n1` the “% Inhibition” value was -10% and the Z score was 1.73. In the case of `COc1ccc(CCNC(=O)C(=Cc2cc(Br)ccc2OC)C(=O)NCCc2ccc(OC)cc2)cc1`, the “% Inhibition” value is reported as -9% and the Z score is reported as 1.11.
